Data published in PubChem BioAssay AID2147 (National Center for Advancing Translational Sciences (NCATS), 2009).
Hit rate of the full screen: of about 230,000 compounds, about 3,600 (1.6%) were called active. The inconclusive results got no clear call from the source; some entries with a clear call stand among them for comparison. Calls follow the shape of the dose curve; as a rule, active = well fitted inhibition curve with a large enough effect (not every such curve was filed as active); inconclusive = small, poorly fitted or top-dose-only effect, or another doubt; inactive = no such curve, though single readings can be large or run the other way. Where the call is inconclusive, the potency comes from a doubtful curve fit.

Target: Lysine-specific demethylase 4E (Homo sapiens) (UniProt B2RXH2)
Chain of UniProt B2RXH2 (B2RXH2 whole entry, looked up, the tested form may be a part): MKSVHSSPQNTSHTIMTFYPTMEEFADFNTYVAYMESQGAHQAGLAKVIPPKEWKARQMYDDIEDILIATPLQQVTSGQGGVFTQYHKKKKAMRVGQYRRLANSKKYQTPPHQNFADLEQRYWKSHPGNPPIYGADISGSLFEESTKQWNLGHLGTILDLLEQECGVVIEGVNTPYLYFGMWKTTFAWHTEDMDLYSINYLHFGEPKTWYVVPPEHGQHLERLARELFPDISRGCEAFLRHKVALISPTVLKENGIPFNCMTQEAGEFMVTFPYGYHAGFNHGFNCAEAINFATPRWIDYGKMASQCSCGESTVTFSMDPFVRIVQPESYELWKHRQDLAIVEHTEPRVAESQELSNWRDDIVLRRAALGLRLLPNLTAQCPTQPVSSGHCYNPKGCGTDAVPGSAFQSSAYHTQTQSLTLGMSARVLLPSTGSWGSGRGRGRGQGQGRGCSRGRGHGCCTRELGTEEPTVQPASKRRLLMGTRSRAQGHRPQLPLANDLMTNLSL
Test: qHTS Assay for Inhibitors of Human Jumonji Domain Containing 2E (JMJD2E)
Conditions: JMJD2E catalytic domain, FDH-coupled NADH fluorescence (FDH is formaldehyde dehydrogenase); series mostly up to 57.1 µM; activity change, negative = inhibition: at the top concentration
Also: nearly all actives have a fitted effect of over 50% in size.
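For activity change, negative = inhibition in this document: 0% = wells with enzyme and -100% = buffer wells without enzyme.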
Potency is read from the fitted curve at half-maximal effect; tags tell the direction and shape of the fitted curve.

SMILES | activity change, negative = inhibition | Potency
Cc1cccc(OCC(=O)N/N=C/c2ccccc2C(=O)O)c1 | inactive: -10.5% | 
COc1ccc(OC)c(NC(=O)c2cc3ccccc3o2)c1 |  | inconclusive: 6.31 µM [inhibitor, single point]
Cc1cccc(N(CC(=O)NCc2ccc3c(c2)OCO3)C(=O)CCC(=O)Nc2ccccn2)c1C | inactive: -7.64% | 
COc1ccc(OC)c(S(=O)(=O)N2CCN(c3ccccn3)CC2)c1 |  | inconclusive: 39.8 µM [inhibitor, single point]
Cc1ccc(NC(=O)N(Cc2ccco2)Cc2cc3cc(C)cc(C)c3nc2Cl)cc1 |  | inconclusive: 39.8 µM [inhibitor, single point]
CCOc1ccc(N(CC(=O)NCC2CCCO2)S(=O)(=O)c2ccc(SC)cc2)cc1 (stereo not given) | inactive: -6.32% | 
Nc1nc(SCC(=O)c2c(N)n(Cc3ccccc3)c(=O)[nH]c2=O)n[nH]1 | inactive: 1.65% | 
N/C(Cc1ccccc1)=N\OC(=O)c1cccc2ccccc12 |  | inconclusive: 35.5 µM [inhibitor, single point]
NC(=S)N/N=C\c1c(OCc2ccccc2Cl)ccc2ccccc12 |  | inconclusive: 28.2 µM [inhibitor, single point]
Cc1ccc(CNc2ncnc3c2cnn3-c2ccccc2)cc1 |  | inconclusive: 35.5 µM [inhibitor, single point]
Cc1nc(-c2ccccn2)sc1C(=O)O |  | inconclusive: 22.4 µM [inhibitor, single point]
CC(C)(C)c1ccc(NC(=O)N2CCN(c3ccc([N+](=O)[O-])cn3)CC2)cc1 | inactive: 66.6% | 
CCOC(=O)c1c2c3c(cccc3[nH]c1=O)C(=O)c1ccccc1-2 | inactive: 6.34% | 
COc1ccc(-c2cc(C#N)nc(Cl)n2)cc1 |  | inconclusive: 31.6 µM [inhibitor, partial curve]
CSc1nc(N(C)CCO)c2sc3nc(-c4ccco4)c4c(c3c2n1)CCC4 |  | inconclusive: 7.94 µM [inhibitor, partial curve]
N#CC1=C(S)N(c2ccccc2)C(c2ccc(-c3ccc(Cl)c(Cl)c3)o2)NC1=O (stereo not given) |  | active: 25.1 µM
COc1ccc(Cl)cc1C(=O)NC(=S)Nc1cc(-c2nc3ccccc3[nH]2)ccc1C |  | inconclusive: 22.4 µM [inhibitor, partial curve]
O=C(CNc1ccc2ccccc2c1)N/N=C/c1cc2ccccc2nc1Cl |  | inconclusive: 39.8 µM [inhibitor, single point]
Nc1c(C(=O)Nc2ccc(F)cc2)sc2nc(-c3ccco3)ccc12 |  | inconclusive: 14.1 µM [inhibitor, partial curve]
COc1cc(/C=N/NC(=O)C(Cc2c[nH]c3ccccc23)NC(=O)OCC(C)C)cc([N+](=O)[O-])c1OCc1ccccc1 (stereo not given) | inactive: -11% | 
COC(=O)c1[nH]c2cc(OC)ccc2c1NC(=O)CCN1CCN(c2cccc(C)c2C)CC1 |  | inconclusive: 35.5 µM [inhibitor, single point]
CC(=O)Nc1ccc(-c2csc(NCc3ccccc3)n2)cc1 | inactive: -18.5% | 
O=c1oc2cc(O)c(Cl)cc2c2ccccc12 | inactive: -8.28% | 
CCc1nnc(N2C(=O)c3ccccc3C2(O)c2ccccc2)s1 (stereo not given) |  | inconclusive: 25.1 µM [inhibitor, partial curve]

SMILES | activity change, negative = inhibition | Potency
COc1ccc(N2C(=O)CCC(C(=O)NCCN3CCOCC3)C2c2ccc(OC)c(OC)c2)cc1 (stereo not given) |  | inconclusive: 39.8 µM [inhibitor, single point]
CCCCCCCCCCS(=O)(=O)N/N=C/c1ccc([N+](=O)[O-])cc1 | inactive: -20.1% | 
CCCC(c1nnnn1Cc1cccs1)N1CCN(c2ccc(OC)cc2)CC1 (stereo not given) | inactive: 3.8% | 
CCCCCNC(=O)c1ccc2c(=O)n(CCCOCC)c(=S)[nH]c2c1 | inactive: 5.83% | 
COc1ccccc1-c1nccc(-n2ccnc2)n1 |  | inconclusive: 25.1 µM [inhibitor, single point]
COC(=O)C1=CN(C2CC2)C=C(C(=O)OC)C1c1ccccc1OC |  | inconclusive: 31.6 µM [inhibitor, partial curve]
CCn1c(CNc2ccc(Cl)cc2)nnc1SCC#N | inactive: -9.4% | 
COC(=O)C1=CN(C)C=C(C(=O)OC)C1c1ccc(O)c(OC)c1 |  | inconclusive: 28.2 µM [inhibitor, partial curve]
CN(C)c1ccc(-c2nn3c(-c4cccnc4)nnc3s2)cc1 |  | inconclusive: 7.08 µM [inhibitor, single point]
CCC(=O)Oc1cccc(C(=O)Nc2ccc(-c3nnc(-c4ccco4)o3)cc2)c1 |  | inconclusive: 35.5 µM [inhibitor, single point]
O=C(Nc1ccc(Cl)c(Cl)c1)Nc1cc(C(=O)NC2CC2)ccc1Cl |  | inconclusive: 4.47 µM [inhibitor, full curve, poor fit]
Cc1ccc(CNc2nc(-c3cccs3)nc3ccccc23)cc1 |  | inconclusive: 39.8 µM [inhibitor, single point]
Cn1c(-c2cc3ccccc3oc2=O)nc2ccccc21 |  | inconclusive: 39.8 µM [inhibitor, single point]
Cc1nc(N2N=C3/C(=C/c4ccc(F)cc4)CCCC3C2c2ccc(F)cc2)sc1C(=O)N(C)C (stereo not given) |  | inconclusive: 39.8 µM [inhibitor, single point]
Cc1nn2c(C)c(C(=O)Nc3ccccc3)cnc2c1C#N | inactive: 0.754% | 
CCC(=O)OC1(C)C(=O)C=C2C=C(CCCNC(=O)OC(C)(C)C)OC=C2C1=O (stereo not given) | inactive: -13.1% | 
COc1cc(CCNC(=O)c2cnn3ccccc23)cc(OC)c1OC |  | inconclusive: 35.5 µM [inhibitor, partial curve]
O=c1c2ccccc2c(/C=N/NS(=O)(=O)c2ccccc2)c(O)n1-c1ccccn1 |  | inconclusive: 28.2 µM [inhibitor, partial curve]
CC1Cc2ccccc2N1C(=O)COC(=O)CCc1nc2ccccc2c(=O)[nH]1 (stereo not given) | inactive: 2.54% | 
Cc1cc(=O)oc2cc(OCC(=O)Nc3nnc(C4CC4)s3)ccc12 |  | inconclusive: 20 µM [inhibitor, partial curve]
c1ccc2c(c1)nc(N1CCOCC1)c1ccccc12 |  | inconclusive: 35.5 µM [inhibitor, single point]
COc1ccc(CN2CCCCC2c2cccnc2)c(OC)c1C (stereo not given) | inactive: 1.57% | 
Cc1cc(=O)oc2cc(OCC(=O)Nc3nnc(C(C)C)s3)ccc12 |  | inconclusive: 14.1 µM [inhibitor, partial curve]
N=C1c2ccccc2CN1c1ccc(N2CCOCC2)c(S(=O)(=O)Nc2ccc(Cl)cc2)c1 | inactive: -4.63% | 

SMILES | activity change, negative = inhibition | Potency
COc1ccc([C@H]2C=C(C(=O)O)O[C@@H](OCCCCO)C2)cc1 |  | inconclusive: 25.1 µM [inhibitor, partial curve]
COc1ccccc1NC(CC(=O)c1ccccc1)C(=O)OCC(=O)c1ccc(C)c(C)c1 (stereo not given) | inactive: 7.01% | 
COc1ccc(O)c(/C=N/Nc2nc3ccccc3[nH]2)c1 | inactive: -12.6% | 
Cc1ccc2nc3c(nc2c1C)C(O)=C3O |  | inconclusive: 31.6 µM [inhibitor, single point]
COc1ccc(Cn2c(O)c(/C=N/NC(=O)c3cccnc3)c3ccccc3c2=O)cc1 |  | active: 28.2 µM
COc1ccc(CNC(=S)N/N=C(/C)c2ccccc2)cc1 |  | inconclusive: 35.5 µM [inhibitor, single point]
COC(=O)CSc1ccc2nnc(-c3ccc(F)cc3)n2n1 |  | inconclusive: 31.6 µM [inhibitor, partial curve]
CC(C)(C)c1ccc(C(=O)NCCn2c(N)c(C#N)c3nc4ccccc4nc32)cc1 |  | inconclusive: 12.6 µM [inhibitor, partial curve]
CCN(CC)c1ccc(/C=N/NC(=O)c2ccco2)c(O)c1 |  | active: 14.1 µM
CCOC(=O)c1cc2c(ccn2C)n1CC(=O)N(Cc1ccccc1)c1ccccc1 |  | inconclusive: 39.8 µM [inhibitor, single point]
Cc1ccc(Nc2c(-c3ccc(N4CCOCC4)cc3)nc3cnccn23)cc1 |  | inconclusive: 35.5 µM [inhibitor, single point]
COc1ccc(-c2cc(C(F)(F)F)n3nc(C(=O)N4CCCCC4)cc3n2)cc1OC |  | inconclusive: 39.8 µM [inhibitor, single point]
COCCn1c(C)cc(/C=C2/NC(=O)N(c3cccc(Cl)c3)C2=O)c1C |  | inconclusive: 25.1 µM [inhibitor, single point]
O=C(CN1CCOCC1)Nc1ccccc1NC(=O)C1CCN(c2ncccn2)CC1 |  | inconclusive: 31.6 µM [inhibitor, single point]
O=C(NCc1ccco1)c1ccc(Cn2c(=O)c3sccc3n(Cc3cccc(F)c3)c2=O)cc1 |  | inconclusive: 31.6 µM [inhibitor, single point]
O=C(c1cccnc1)N1CCN(Cc2ccccc2Br)CC1 |  | inconclusive: 28.2 µM [inhibitor, single point]
Cn1c(C(=O)NC2CCCCCC2)cc2c(=O)n(C)c3ccccc3c21 |  | inconclusive: 28.2 µM [inhibitor, single point]
CCCCn1nc(NC(=O)c2cccs2)c2cc3cc(OC)ccc3nc21 |  | inconclusive: 28.2 µM [inhibitor, partial curve]
O=C(O)c1ccc2c(=O)[nH]c(CCl)nc2c1 |  | inconclusive: 31.6 µM [inhibitor, single point]
COc1ccccc1CC(=O)Nc1cccc(C(=O)Nc2nccs2)c1 |  | inconclusive: 12.6 µM [inhibitor, partial curve]
CC(C)CNS(=O)(=O)c1ccc(NC(=O)Cn2nc(-c3ccc(F)cc3)ccc2=O)cc1 | inactive: 0.813% | 
CN(C)CC(C)(C)CN=Cc1c(O)[nH]c2ccccc12 | inactive: -0.591% | 
